From PubChem BioAssay AID1768 (National Center for Advancing Translational Sciences (NCATS), 2009)
The campaign covered roughly 270,000 compounds. About 620 (0.23%) were called active. Inconclusive results, whose numbers are uncertain, are shown with a selection of clear calls. Calls come from the whole dose curve; as a rule, active = well fitted inhibition curve with a large enough effect in the polarisation, with a control signal flat (not every such curve was filed as active); inconclusive = small, poorly fitted or top-dose-only effect, or effect the other way, or a change in a side signal; inactive = no such curve, though single readings can be large or run the other way; the % refers to the polarisation. Potencies of inconclusive entries are doubtful fits and often do not repeat. “Side channel” marks fits to a control or component signal instead of the main read-out.

molecular target: Menin (Homo sapiens) (UniProt O00255); experiment: qHTS Assay for Inhibitors Targeting the Menin-MLL Interaction in MLL Related Leukemias: Competition With Texas Red Labeled MLL-derived Mutant Peptide; conditions: fluorescence polarization; FP activity change, negative = inhibition: at 61.6 µM (top of the series); for FP activity change, negative = inhibition: % of control where 0% means no effect
Sequence of UniProt O00255 (O00255 whole entry, looked up): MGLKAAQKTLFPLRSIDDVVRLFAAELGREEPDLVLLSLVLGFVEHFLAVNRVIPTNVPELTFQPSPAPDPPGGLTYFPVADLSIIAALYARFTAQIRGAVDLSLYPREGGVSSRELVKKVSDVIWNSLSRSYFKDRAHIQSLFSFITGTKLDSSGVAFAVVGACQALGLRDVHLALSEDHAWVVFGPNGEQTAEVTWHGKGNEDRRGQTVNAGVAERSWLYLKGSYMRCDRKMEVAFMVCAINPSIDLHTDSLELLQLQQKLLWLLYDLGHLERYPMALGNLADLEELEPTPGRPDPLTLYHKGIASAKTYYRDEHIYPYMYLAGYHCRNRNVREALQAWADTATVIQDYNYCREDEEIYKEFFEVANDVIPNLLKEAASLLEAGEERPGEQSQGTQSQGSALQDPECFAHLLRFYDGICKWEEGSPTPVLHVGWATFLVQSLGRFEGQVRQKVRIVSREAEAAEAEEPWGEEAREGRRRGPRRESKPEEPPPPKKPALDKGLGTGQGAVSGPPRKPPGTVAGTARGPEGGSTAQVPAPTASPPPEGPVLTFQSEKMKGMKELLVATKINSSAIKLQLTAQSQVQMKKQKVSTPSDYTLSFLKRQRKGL
Potency is the fitted concentration of half-maximal effect; tags give direction and shape of the fitted curve or compound fluorescence and quenching.

SMILES | Potency | FP activity change, negative = inhibition
CC(CNC(=O)c1ccc(C#N)cc1)NC(=O)c1ccc(C#N)cc1 (stereo not drawn) | inconclusive: 39.8 µM [quencher, side channel, single point] | –
FC(F)(F)c1ccccc1-c1nc(NCc2cccs2)c2ccccc2n1 | inconclusive: 11.2 µM [quencher, side channel, partial curve] | –
CCn1cc(C(=O)N[C@H](C(=O)NCCCOC)C(C)C)c(=O)c2cc3c(cc21)OCO3 | inconclusive: 1.26 µM [inhibitor, partial curve] | –
O=C(c1ccc(Cl)c(S(=O)(=O)N2CCCCC2)c1)N1CCCCC1 | inconclusive: 3.98 µM [quencher, side channel, single point] | –
O[Si](CCCN1CCCCC1)(c1ccc(F)cc1)C1CCCCC1 (stereo not drawn) | inconclusive: 7.94 µM [fluorescent, side channel, partial curve] | –
Cc1cs/c(=N\N=C\c2ccccc2)n1Cc1ccco1 | inconclusive: 28.2 µM [quencher, side channel, single point] | –
CCOc1cc(C2NC(=O)CCC2[N+](=O)[O-])cc(Br)c1OCC (stereo not drawn) | inconclusive: 3.16 µM [quencher, side channel, full curve, poor fit] | –
COC(=O)c1ccc(NC(=O)Cn2cnc3c(nnn3-c3cccc(OC)c3)c2=O)cc1 | inconclusive: 3.98 µM [inhibitor, single point] | –
COc1cccc(OCc2nc3ncc(Br)cc3[nH]2)c1 | inactive | –
Cc1ccnc(N2CCCC(C(=O)NCc3cccs3)C2)n1 (stereo not drawn) | inconclusive: 35.5 µM [inhibitor, partial curve] | –
CCOc1ccc(C(=O)C2CCN(CC(=O)Nc3nccs3)CC2)cc1 | inconclusive: 39.8 µM [fluorescent, side channel, single point] | –
CCc1nn(CC(=O)NCCc2ccc(S(N)(=O)=O)cc2)c(=O)c2cc3sccc3n12 | inconclusive: 28.2 µM [fluorescent, side channel, single point] | –
CCCCNC(=O)c1cn(CC(C)C)c(=O)c2c1c1ccccc1n2C | inconclusive: 7.08 µM [inhibitor, single point] | –
c1ccc(N2CCN(CCCOc3ccc4c(c3)OCO4)CC2)cc1 | inconclusive: 7.08 µM [inhibitor, full curve] | –
CC(=O)Nc1ccc(/C=N/NC(=O)c2cccs2)cc1 | inconclusive: 39.8 µM [inhibitor, single point] | –
COC(=O)c1ccc(C(=O)Nc2nc3cc(N)c(C)cc3s2)cc1 | inconclusive: 12.6 µM [quencher, side channel, partial curve] | –
N=C1/C(=C/c2cccn2CCOc2ccccc2)C(=O)N=C2SC=C(c3ccccc3)N12 | inconclusive: 2.51 µM [quencher, side channel, full curve, poor fit] | –
Cc1cccc(N(C(=O)CCC(=O)Nc2cc(C)on2)C(C(=O)NC2CCCC2)c2ccc(C)o2)c1 (stereo not drawn) | inconclusive: 17.8 µM [fluorescent, side channel, partial curve] | –
COc1cccc(C(=O)Nc2nc(-c3ccc4c(c3)OCO4)cs2)c1 | inconclusive: 20 µM [quencher, side channel, single point] | –
O=C(CC(=O)c1ccccc1)Nc1cc([N+](=O)[O-])ccc1Cl | inconclusive: 17.8 µM [quencher, side channel, partial curve] | –

SMILES | Potency | FP activity change, negative = inhibition
Cc1ccc(C)c(C(=O)OCC(=O)N(C)c2ccccc2)c1 | inconclusive: 7.94 µM [inhibitor, full curve] | –
CC(C)(C)OC(=O)NS(=O)(=O)Nc1ccccc1Br | inactive | –
Oc1ccc(Br)cc1/C=N/Nc1nc(N2CCCCC2)nc(N2CCOCC2)n1 | inconclusive: 14.1 µM [quencher, side channel, partial curve] | –
Cc1cccc(Cc2cnc(NC(=O)c3ccc(C)o3)s2)c1 | inconclusive: 12.6 µM [quencher, side channel, partial curve] | –
O=C(N/N=C/c1cc([N+](=O)[O-])ccc1Cl)c1cnccn1 | inactive | –
Cc1cc(O)c(C(=O)/C=C/c2ccc(Cl)cc2)c(=O)o1 | inconclusive: 25.1 µM [quencher, side channel, partial curve] | –
Cc1cccc(NC(=O)NCc2ccc3c(c2)cc(C)n3C)c1 | inconclusive: 25.1 µM [fluorescent, side channel, partial curve] | –
CCc1cccc(C)c1NC(=S)NCCc1c(C)[nH]c2ccc(C)cc12 | inconclusive: 35.5 µM [quencher, side channel, single point] | –
COC(=O)C/C=C\[C@H](C)[C@@H](OC)c1ccccc1Br | – | inactive: 4.78% [at 11.7 µM]
CC(C)=CCc1c(O)cc2occ(-c3ccc4c(c3)OCO4)c(=O)c2c1O | inconclusive: 3.16 µM [quencher, side channel, full curve] | –
COc1ccc2c3c(cccc13)N(C)N=C2C | inconclusive: 28.2 µM [inhibitor, single point] | –
COc1ccc(CN2CCC(CO)(Cc3ccccc3C(F)(F)F)CC2)c(F)c1 | inconclusive: 12.6 µM [inhibitor, partial curve] | –
O=C(NCCc1c[nH]c2ccccc12)OCCSS(=O)(=O)O | inconclusive: 17.8 µM [quencher, side channel, partial curve] | –
COc1ccc(CN(C)CC(O)COC(c2ccccc2)c2ccccc2)c(OC)c1OC (stereo not drawn) | inactive | –
NC(CCC(=O)NCS(=O)(=O)O)C(=O)O (stereo not drawn) | inactive | –
Cc1cnc(C(=O)Oc2ccc(-c3ccccc3)cc2)cn1 | inconclusive: 3.55 µM [inhibitor, partial curve] | –
O=C(Cn1c(-c2ccccc2)noc1=O)Nc1ccc(N2CCCCCC2)cc1 | inconclusive: 14.1 µM [quencher, side channel, partial curve] | –
COCCN1C(=O)CS/C1=C(/C#N)C(=O)NCc1ccco1 | inconclusive: 25.1 µM [fluorescent, side channel, partial curve] | –
O=C(Nc1nccs1)c1ccc(CSc2nnnn2-c2ccccc2)cc1 | inconclusive: 0.631 µM [quencher, side channel, full curve, poor fit] | –
C=CC(C)Sc1nc2c(c(=O)n(C)c(=O)n2C)n1Cc1ccccc1Cl (stereo not drawn) | inconclusive: 12.6 µM [fluorescent, side channel, partial curve] | –

SMILES | Potency | FP activity change, negative = inhibition
O=c1ccn(C2OC(COP(=O)(O)OC3C(CO)OC(n4ccc(=O)[nH]c4=O)C3O)C(O)C2O)c(=O)[nH]1 (stereo not drawn) | inactive | –
CCC(C)NC(=O)CS(=O)Cc1nc(-c2cccc(C)c2)oc1C (stereo not drawn) | inconclusive: 3.55 µM [fluorescent, side channel, single point] | –
Cc1ccc2c(c1)c(CC(=O)Nc1ccc(F)cc1)c(C(=O)O)n2C | inconclusive: 15.8 µM [quencher, side channel, partial curve] | –
Cc1ccccc1-c1nc(CN2CCC(C(=O)N3CCN(c4ccccn4)CC3)CC2)c(C)o1 | inconclusive: 3.16 µM [fluorescent, side channel, full curve, poor fit] | –
CCCC(=O)N(Cc1cc(=O)[nH]c2ccccc12)c1cccc(C)c1 | inconclusive: 2.51 µM [inhibitor, partial curve] | –
Cc1ccc(C(=O)Nc2ccccc2C(=O)NCc2ccco2)cc1S(=O)(=O)N1CCCCC1 | inconclusive: 11.2 µM [quencher, side channel, partial curve] | –
COCCn1c(SCC(=O)Nc2sc(C)c(C)c2C#N)nnc1-c1ccc(OC)cc1 | inconclusive: 2.82 µM [fluorescent, side channel, full curve, poor fit] | –
CCc1ccc(NC(=O)Cc2ccc(-n3cccc3)cc2)cc1 | inconclusive: 35.5 µM [inhibitor, single point] | –
Cc1cc(N=Nc2ccccc2)c(NCC(O)C(O)C(O)CO)cc1C (stereo not drawn) | inconclusive: 28.2 µM [quencher, side channel, single point] | –
CN(C)c1ccc(C(CNC(=O)c2ccccc2F)c2c[nH]c3ccccc23)cc1 (stereo not drawn) | inconclusive: 12.6 µM [quencher, side channel, partial curve] | –
CCSc1nc2sc3c(c2c(=O)n1-c1ccccc1C)CCN(C)C3 | inconclusive: 28.2 µM [fluorescent, side channel, partial curve] | –
O/C(=C\c1nc2ccccc2[nH]1)c1cccs1 | inactive | –
CCN1CCN(C(=O)C(C)Nc2cc(Cl)c(OC)cc2OC)CC1 (stereo not drawn) | inconclusive: 28.2 µM [inhibitor, partial curve] | –
CCOC(=O)c1c(-c2ccc(-c3ccccc3)cc2)csc1NC(=O)CNCCN(C)C | inconclusive: 7.94 µM [fluorescent, side channel, full curve] | –
COc1ccc(-c2ccccc2C2C3C=CCCC3(C)C(=O)N2Cc2ccccc2)cc1 (stereo not drawn) | inactive | –
N/C(=N\OC(=O)CCC1CCCCC1)c1ccccn1 | inconclusive: 39.8 µM [inhibitor, single point] | –
Cc1cc([N+](=O)[O-])ccc1NCc1ccc2ccccc2c1 | inconclusive: 14.1 µM [quencher, side channel, partial curve] | –
CCn1c2ccccc2c2cc(NC(=S)N3CCOCC3)ccc21 | inconclusive: 12.6 µM [quencher, side channel, partial curve] | –
